Test results taken from the BET-seq Pho4 binding data (Le et al. 2018).
The other results are listed elsewhere or left out. The energies were worked out here from pooled read counts, against the library average; single values are noisy.

Biological target: T1, Pho4 (S. cerevisiae) (UniProt P07270)
T1 sequence: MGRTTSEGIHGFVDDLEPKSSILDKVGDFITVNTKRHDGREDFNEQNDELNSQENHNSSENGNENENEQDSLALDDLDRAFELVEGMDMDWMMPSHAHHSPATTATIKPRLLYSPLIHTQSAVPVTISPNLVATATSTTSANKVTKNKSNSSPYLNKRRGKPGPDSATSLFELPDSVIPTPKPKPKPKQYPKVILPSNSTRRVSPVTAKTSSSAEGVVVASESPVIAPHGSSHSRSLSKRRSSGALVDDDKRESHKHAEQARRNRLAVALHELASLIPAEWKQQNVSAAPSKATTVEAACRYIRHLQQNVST
Test: relative binding free energy (BET-seq); higher = weaker binding
Settings: reference: library average

Sequence | relative binding free energy
TGTCACACGTGATGTG | 0.17 kcal/mol
TCTTGCACGTGTTCGG | -0.04 kcal/mol
CTAGGCACGTGTGGGT | -0.12 kcal/mol
GCGTGCACGTGAGTGG | 0.24 kcal/mol
GAGGTCACGTGTGTGG | 0.15 kcal/mol
AGGTGCACGTGAATAG | 0.13 kcal/mol
CGGAGCACGTGTTGGA | 0.04 kcal/mol
GTTGCCACGTGCGTAG | 0.02 kcal/mol
TAACGCACGTGGGTAT | -0.13 kcal/mol
CCGTGCACGTGAAGGG | 0.15 kcal/mol
ATCTGCACGTGGTTGA | -0.15 kcal/mol
TCTTTCACGTGTGCGT | 0.22 kcal/mol
TCATACACGTGGGGAG | 0.03 kcal/mol
AGTGGCACGTGAGTCG | -0.04 kcal/mol
TGGCGCACGTGTGTCT | -0.11 kcal/mol
GTAGTCACGTGCTGGC | 0.07 kcal/mol
GGGACCACGTGGGTGA | -0.17 kcal/mol
GTGCACACGTGTGGTG | 0.11 kcal/mol
TGGTGCACGTGCCAGT | -0.12 kcal/mol
ATGGGCACGTGCGAGC | -0.13 kcal/mol
GTCGGCACGTGGTGCA | -0.12 kcal/mol
CAGGGCACGTGCTTGG | -0.17 kcal/mol
AGTAGCACGTGTCAGG | -0.11 kcal/mol

Sequence | relative binding free energy
AGCTTCACGTGCGGTT | 0.08 kcal/mol
GGGCGCACGTGTTAGG | -0.15 kcal/mol
TATTACACGTGCATTT | 0.2 kcal/mol
TGGATCACGTGGATGT | 0.18 kcal/mol
CAGGGCACGTGAGGGG | 0.16 kcal/mol
GTGAACACGTGTTGTG | 0.04 kcal/mol
GGGGGCACGTGGGGGT | -0.04 kcal/mol
TGTTTCACGTGATACA | 0.16 kcal/mol
CGTTTCACGTGGGCGA | 0.12 kcal/mol
CTCGTCACGTGAGTGG | 0.19 kcal/mol
GGTTTCACGTGATGGA | 0.36 kcal/mol
TTAAGCACGTGGTCGG | -0.14 kcal/mol
TTAATCACGTGTTTGA | 0.11 kcal/mol
GTGTGCACGTGTGTAC | -0.01 kcal/mol
GAAGACACGTGTGTGG | 0.13 kcal/mol
GTGAACACGTGGTCTT | 0.09 kcal/mol
CTTTTCACGTGGGGTC | 0.19 kcal/mol
GGCGGCACGTGTAATG | 0.02 kcal/mol
GTGTGCACGTGAGAAA | 0.25 kcal/mol
GTATACACGTGCGGGT | -0.1 kcal/mol
GTGAGCACGTGTGAGA | -0.11 kcal/mol
TTGTACACGTGTCGAT | 0.08 kcal/mol
TGTTGCACGTGTAGTC | 0.13 kcal/mol

Sequence | relative binding free energy
TGATTCACGTGGGGAA | 0.08 kcal/mol
AATGGCACGTGTCGGC | 0.09 kcal/mol
TGTGTCACGTGGAGAT | 0.1 kcal/mol
GAGTGCACGTGAAGGG | 0.22 kcal/mol
ATATGCACGTGGGAGC | -0.08 kcal/mol
GACGGCACGTGGGAAT | 0.05 kcal/mol
CTGGTCACGTGCGGAT | 0.14 kcal/mol
CGGGACACGTGAGATG | 0.42 kcal/mol
AACGTCACGTGATTGG | 0.22 kcal/mol
TTCAGCACGTGTGGTG | -0.03 kcal/mol
TTTGTCACGTGAGCCT | 0.19 kcal/mol
AATCTCACGTGGTAGG | 0.13 kcal/mol
CTTTACACGTGAGTAG | 0.33 kcal/mol
TTCATCACGTGTTAGG | 0.26 kcal/mol
GAGTGCACGTGTCGTT | -0.03 kcal/mol
TAATACACGTGGTGTC | -0.05 kcal/mol
AGGGTCACGTGGGGTG | -0.09 kcal/mol
CTATGCACGTGGGTAA | -0.12 kcal/mol
GGTATCACGTGGAAGA | 0.33 kcal/mol
GAAATCACGTGATTTG | 0.29 kcal/mol
GTTTCCACGTGATGTT | 0.51 kcal/mol
AGTTGCACGTGGGTAT | -0.05 kcal/mol
TTGTACACGTGTATCT | -0.02 kcal/mol

Sequence | relative binding free energy
TTGAGCACGTGCTATG | -0.21 kcal/mol
GGCGTCACGTGCGGTT | 0.17 kcal/mol
GGGTACACGTGGATGA | 0.13 kcal/mol
CTTTTCACGTGATAGT | 0.1 kcal/mol
GGGACCACGTGTTCGG | 0.02 kcal/mol
GTAGTCACGTGCGCTT | 0.09 kcal/mol
TTTTGCACGTGTAACG | 0.14 kcal/mol
TGTAGCACGTGGGATT | -0.09 kcal/mol
TTTGGCACGTGCACGT | -0.2 kcal/mol
GCGCTCACGTGTAGGG | 0.23 kcal/mol
ATAGTCACGTGGTTCG | 0.02 kcal/mol
TAGTACACGTGCGTTT | 0.11 kcal/mol
AATATCACGTGTGCGG | 0.19 kcal/mol
GTGGTCACGTGTCGTC | 0.1 kcal/mol
TGGAGCACGTGGTGAG | -0.06 kcal/mol
GTAAGCACGTGATTAG | 0.11 kcal/mol
AAAGGCACGTGTAGGG | -0.13 kcal/mol
AGTATCACGTGTAAAT | 0.13 kcal/mol
GTGGCCACGTGTGATT | 0.04 kcal/mol
GGTCGCACGTGGTCGG | -0.05 kcal/mol
TCTGGCACGTGGGCAT | -0.13 kcal/mol
AGGGGCACGTGCTATT | -0.16 kcal/mol
AAAGACACGTGGAGGG | -0.04 kcal/mol

Sequence | relative binding free energy
TCGGGCACGTGCGGGC | -0.14 kcal/mol
TTAAACACGTGAGAGG | 0.24 kcal/mol
GTTGGCACGTGGATCG | 0.13 kcal/mol
ATGTGCACGTGACGGT | 0.12 kcal/mol
TATAGCACGTGTTCTT | -0.05 kcal/mol
TTAAGCACGTGCTTTG | -0.16 kcal/mol
GTGGACACGTGTGGGT | 0.18 kcal/mol
TGGTGCACGTGTCCTT | 0.05 kcal/mol
CGGGTCACGTGGTTAG | 0.14 kcal/mol
TCGTGCACGTGGTGTG | -0.16 kcal/mol
TGAGACACGTGGCTTG | 0 kcal/mol
ATGGGCACGTGCTTAA | -0.12 kcal/mol
TTTAACACGTGTTCGA | -0.1 kcal/mol
TGTGGCACGTGATGAA | 0.01 kcal/mol
CTTATCACGTGTTAGG | 0.16 kcal/mol
AATGGCACGTGTAAGT | 0.14 kcal/mol
GTGCGCACGTGTTTTA | -0.08 kcal/mol
ATTAGCACGTGGATCA | 0.17 kcal/mol
TTTTACACGTGTCTAG | 0.08 kcal/mol
GAATTCACGTGTTTTA | 0.36 kcal/mol
ATTCGCACGTGTGGGA | -0.04 kcal/mol
GGGTGCACGTGTGGAT | 0.02 kcal/mol
GTTTACACGTGGAAGA | 0.23 kcal/mol
